Patent publication US6641809

Molecular target: T1, B7 antigen (human, UniProt P33681 35-288)
T1 construct: whole, on cells; The same entry is used for B7 on transfected COS/CHO cells and for native B7 on B cell lines; the assay field says which; also called B7/BB-1 antigen; ligand for CD28
T1 sequence (looked up): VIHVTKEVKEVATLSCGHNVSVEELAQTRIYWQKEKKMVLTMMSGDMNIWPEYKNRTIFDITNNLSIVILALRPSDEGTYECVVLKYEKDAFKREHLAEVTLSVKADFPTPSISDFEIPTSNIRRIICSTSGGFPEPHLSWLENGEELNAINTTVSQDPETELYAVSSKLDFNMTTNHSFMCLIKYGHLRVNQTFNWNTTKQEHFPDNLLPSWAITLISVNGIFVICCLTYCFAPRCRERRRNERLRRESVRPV
Experiment: inhibition of adhesion of PM lymphoblastoid cells to CD28+ CHO monolayers

IC50: > 950 nM
B1: CD28Ig fusion protein (Fc fusion)
chain: not shown
notes: Made in COS cells and purified on protein A; DNA deposited as ATCC 68628; also called immobilized CD28Ig
